Data reported in the RNAGym collection of RNA variant scans (doi:10.1093/nar/gkz1192).
Read counts are not given, so values of variants with three or more changes are uncertain.

B1: CPEB3 Ribozyme (parent)
chain: UAACAGGGGGCCACAGCAGAAGCGUUCACGUCGCAGCCCCUGUCAGAUUCUGGUGAAUCUGCGAAUUCUGCUGUAUAUCUC

Variants of: B1
Assay: self-cleavage, relative activity (ratio to wild type); higher = more cleavage; in vitro, sequencing
Summary of the method: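 Relative activity was defined as the cleaved/total read fraction for a variant divided by the same fraction for the unmutated ribozyme. CPEB3 self-cleaving ribozyme libraries were made by rounds of error-prone PCR, barcoded, and transcribed in vitro with T7 RNA polymerase for 5 hours at 37°C, and cleavage ran through transcription plus a 15 min DNase I step before EDTA. Illumina sequencing of template-switched reverse transcripts gave the reads, and DNA sequencing mapped the barcodes. Averages come from three batches, using variants with at least 5 reads.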

Variant	self-cleavage
A3G A21G U26C A35G A75G	0.77
A3G A21G U31A A56G A64G	0.14
A3G A21G U31A U41C	0.52
A3G A21G U31C U41A G53U	0.23
A3G A21G U41A U72C U76C U78C	0.15
A3G A21G U41G U43G U60C	0.06
A3G A21G U43C	0.42
A3G A21G U48C U72A	0.09
A3G A21G U48C U76C	0.6
A3G A21G U51A G52U U60A	0.65
A3G A21G U51C U60C C68A U76C	0.19
A3G A21G U51G U78C	0.69
A3G A21G U54A U74A A75U	1.4
A3G A21G U54G U60C U67A	0.11
A3G A21G U58C	0.39
A3G A21G U60C	0.4
A3G A21G U66A	0.5
A3G A21G U67C	0.45
A3G A21G U76C A77U	0.62
A3G A21U C59A	0.09
A3G A21U U31C	0.4

Variant	self-cleavage
A3G A28C A45G A57G	0.44
A3G A28C U43C A47G	0.24
A3G A28G A35G U48C	0.81
A3G A28G A45G U49C U58C C62G	0.08
A3G A28G A45U U51C U72C	0.68
A3G A28G A47G	0.6
A3G A28G A47G U49C U54A C71A	0.08
A3G A28G A56G U67A	0.42
A3G A28G A75G	0.61
A3G A28G C29G A45G U66C U67G	0.08
A3G A28G C38G U41C A56G	0.17
A3G A28G C38U U72A	0.34
A3G A28G C50U U80C	0.63
A3G A28G U31C U41G A45U U80A	0.45
A3G A28G U31C U66G	0.15
A3G A28G U31G U49C U74C	0.14
A3G A28G U43C U67G	0.45
A3G A28G U43G U54C C62A	0
A3G A28G U48C U66G	0.1
A3G A28G U51A U67C	0.45
A3G A28G U51C	0.44

Variant	self-cleavage
A3G A28G U58G U74A U78G	0.1
A3G A28G U66G	0.5
A3G A28G U67C C68A U80C	0.12
A3G A28G U78A	0.79
A3G A28U A64G U67C U80C	0.16
A3G A28U U41A C59U U72A	0.09
A3G A28U U48A U51A	0.17
A3G A28U U48C A57U U80A	0.2
A3G A28U U51A U58C U60C U78C	0.22
A3G A28U U58A C68U	0.24
A3G A35C C38G U66C U78C	0.45
A3G A35C G55C	0.34
A3G A35G A47U	1.18
A3G A35G A56U U69A U78C U80A	1.11
A3G A35G A57G	1.23
A3G A35G C38U	1.22
A3G A35G C40U	1.22
A3G A35G C50A	1.33
A3G A35G G36A U51A A65U U80A	0.16
A3G A35G G36C U80C	0.29
A3G A35G U41A U49C	0.44

Variant	self-cleavage
A3G A35G U41A U67A	0.09
A3G A35G U41C A56G	1.22
A3G A35G U43A	1.19
A3G A35G U43C U49C A56U U80C	0.31
A3G A35G U43G A64G U69C U72A	0
A3G A35G U48C U54A U69A	0.8
A3G A35G U48C U72C	1.12
A3G A35G U49C U60G A64U	0.2
A3G A35G U51A U54C U58C	1.2
A3G A35G U51C A65G	1.08
A3G A35G U60C A64G A65G U66C	0.4
A3G A35G U60C U69C	0.58
A3G A35G U67C U80A	1.03
A3G A35U A45G U69C	0.14
A3G A35U A47G A64U C71U U72A A75U	0.14
A3G A35U A47G U66G U72C U74A U78A	0.12
A3G A35U C44U A64G U80C	0.1
A3G A35U G36A U54C	0.11
A3G A35U U41C A45U U80C	0.23
A3G A35U U41C U54C	0.45
A3G A35U U49C A57G	0.18
